Measured values as given in the supplement of paper PMC3334620.
Whole data set: some 33,000 sequences, median “E-score (-0.5 to 0.5)” near -0.043, cut for the highest 2% near 0.37. This is one part of the list.

biological target: T1, Upc2 (UniProt Q12151); test: PBM E-score (8-mer binding enrichment) (E-score (-0.5 to 0.5)); higher = stronger / more preferred TF binding; most listed sequences are background and not binding sites; conditions: protein concentration: 200 nM; construct: GST-full length
T1 sequence: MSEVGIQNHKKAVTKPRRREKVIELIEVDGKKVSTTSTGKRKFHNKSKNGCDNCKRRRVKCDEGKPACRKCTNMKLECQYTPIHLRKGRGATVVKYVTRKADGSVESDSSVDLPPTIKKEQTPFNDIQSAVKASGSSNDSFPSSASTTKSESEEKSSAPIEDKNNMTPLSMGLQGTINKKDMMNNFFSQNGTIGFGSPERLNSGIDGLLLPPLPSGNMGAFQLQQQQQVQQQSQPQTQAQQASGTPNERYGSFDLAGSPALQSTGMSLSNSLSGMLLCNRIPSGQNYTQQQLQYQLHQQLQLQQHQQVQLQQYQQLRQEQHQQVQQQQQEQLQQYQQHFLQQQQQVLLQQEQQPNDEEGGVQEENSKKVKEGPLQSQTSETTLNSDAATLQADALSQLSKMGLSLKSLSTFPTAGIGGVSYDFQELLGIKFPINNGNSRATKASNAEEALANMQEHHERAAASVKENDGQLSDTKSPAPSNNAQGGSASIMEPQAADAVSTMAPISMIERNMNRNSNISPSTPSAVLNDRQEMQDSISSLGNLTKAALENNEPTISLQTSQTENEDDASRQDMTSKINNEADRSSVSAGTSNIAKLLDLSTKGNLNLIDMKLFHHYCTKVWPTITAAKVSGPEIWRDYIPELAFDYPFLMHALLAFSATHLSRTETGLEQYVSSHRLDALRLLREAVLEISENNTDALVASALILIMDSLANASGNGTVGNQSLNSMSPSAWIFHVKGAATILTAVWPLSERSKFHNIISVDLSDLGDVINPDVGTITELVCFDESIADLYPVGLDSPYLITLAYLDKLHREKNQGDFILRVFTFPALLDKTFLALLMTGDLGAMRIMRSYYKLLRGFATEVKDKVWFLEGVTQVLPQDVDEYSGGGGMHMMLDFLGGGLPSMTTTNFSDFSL
In short: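 Yeast transcription factors, full-length or as DNA-binding domains, were expressed with a GST tag using PURExpress in vitro transcription/translation. At about 100-200 nM they were applied to universal all-10-mer Agilent arrays, double-stranded by primer extension on fresh or once-stripped slides. Fluorescent anti-GST detected bound protein, and masliner normalised the scans. E-scores for ungapped eight-base words, pooled with reverse complements, came from the Universal PBM Analysis Suite.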

Row | Sequence | PBM E-score
1 | GCCTTGGA | -0.174
2 | AACTCTCT | -0.165
3 | ACTGCCCG | -0.0382
4 | CTCAAACA | 0.0248
5 | TAGGCCCA | -0.276
6 | ATATCTGC | -0.193
7 | ACGTCCCT | -0.195
8 | ACGATAAA | 0.321
9 | ATTGCACC | -0.211
10 | CCTTGATA | -0.0225
11 | ATATTAAT | 0.0826
12 | ATCTAGCA | -0.206
13 | GGCGCTTA | -0.125
14 | ACGACAAC | 0.349
15 | ATGTGAAC | 0.00151
16 | AGCGCTTA | 0.16
17 | TAAATTAA | 0.0422
18 | CATCTCGG | 0.0409
19 | ATATGACG | -0.0482
20 | ACCACAGA | -0.0741
21 | AAATCGTC | 0.14
22 | AGAGCCAG | -0.238
23 | CACCATTA | -0.0218
24 | ACTGCTTA | -0.126
25 | AGCCGCAT | -0.0414

Row | Sequence | PBM E-score
26 | CTCTAGAC | -0.0443
27 | ACATACTA | 0.00721
28 | ATGAAAAG | -0.199
29 | AACGCTTC | 0.0315
30 | AACCACCA | -0.101
31 | CTAAAGAA | -0.0917
32 | ACCGCGGG | 0.0219
33 | AAGATGGA | -0.212
34 | GCTGCCCA | -0.0924
35 | AGCGTTGG | -0.274
36 | GCTAATCA | 0.00342
37 | GCGCTGGA | -0.261
38 | TATTGCCA | -0.0387
39 | ATTCGCTC | 0.199
40 | CGAAGTCA | 0.0451
41 | GAGCACTA | 0.0918
42 | ATCGCAAA | 0.158
43 | TACAATCA | 0.0502
44 | AAATGTAG | -0.168
45 | ATTCGTAC | 0.452
46 | AAGAGATA | 0.15
47 | ACAGCTCC | -0.142
48 | GATGTTCC | -0.0779
49 | TACTCCAA | -0.0782
50 | AACGAAGG | 0.401

Row | Sequence | PBM E-score
51 | CTTCAGTC | -0.175
52 | TCTTCGCA | 0.109
53 | ACGTCAAC | 0.138
54 | GATCGACA | -0.0894
55 | CCATTTGA | -0.213
56 | CGTGCTAA | -0.0577
57 | AATCTTGT | -0.0994
58 | GTCGCAGA | -0.00606
59 | ACCCTCCC | -0.00421
60 | AGTCTAGA | -0.24
61 | TCCAAGGA | -0.0456
62 | GATCAGGC | -0.216
63 | ATTGAGTG | -0.104
64 | CCGCGGAG | -0.066
65 | CAGACATA | 0.0243
66 | CCTTCAGC | -0.241
67 | GTCTTCAA | -0.174
68 | ACTAGCGA | 0.116
69 | AAACGGCA | 0.37
70 | ATACATCA | 0.0165
71 | CGAGCTCG | 0.329
72 | GGCGTAGA | 0.048
73 | CTAACACC | -0.0508
74 | AATTCGCA | 0.115
75 | GGGCTCAA | -0.0774

Row | Sequence | PBM E-score
76 | CAGAGGTA | 0.0363
77 | GGATCCAC | -0.119
78 | GATGCCGC | -0.135
79 | GACACTAC | 0.0466
80 | CTAGAATA | 0.0873
81 | ATACTCGC | 0.249
82 | GATCACGA | -0.00109
83 | CGCGTAGC | 0.184
84 | CCCTACGG | -0.0948
85 | CTGTACGA | 0.488
86 | AGTGTGAG | -0.163
87 | CAAATCCA | -0.0755
88 | CGCCACCG | 0.0557
89 | AAGGACTT | -0.248
90 | AGCCTCAT | -0.229
91 | ATCTCATC | -0.0324
92 | CGAACCCA | 0.131
93 | AAACTCTC | 0.0645
94 | CATGGTTA | 0.0278
95 | AGAGCGGA | 0.0747
96 | AATCACCT | -0.0272
97 | AAGGGTCT | -0.221
98 | CTTGGATA | -0.103
99 | ACCAGTAG | -0.137
100 | ATTGGCGA | -0.0375

Row | Sequence | PBM E-score
101 | GTTTAGGA | 0.318
102 | GCACAAAA | 0.122
103 | ACCCTCTC | -0.197
104 | CACCATCG | -0.149
105 | GTCCCTAA | -0.117
106 | CTCGCAAA | 0.261
107 | GACTGTAC | 0.276
108 | AGCAGAGC | -0.151
109 | AGGACGTC | -0.135
110 | ACAATGCC | -0.191
111 | ATAAAGGG | -0.0472
112 | GCCTTGCA | -0.133
113 | CCTCTAAA | -0.185
114 | AGCATCTC | -0.241
115 | CCTGATCA | -0.0937
116 | CGTCATCC | -0.00809
117 | AAAGGATC | -0.127
118 | CCTGGGAA | 0.0157
119 | CCGATTCG | 0.119
120 | ACGGTCAA | 0.28
121 | CATTACGA | 0.316
122 | AACGATAA | 0.381
123 | ATAACCCG | 0.00717
124 | CGCCTGCA | -0.277
125 | ACGGACTG | 0.128

Row | Sequence | PBM E-score
126 | CGAACTAA | 0.105
127 | AGCCCGCT | -0.199
128 | CGACCATA | 0.171
129 | ATACGTCG | 0.329
130 | AAAGACAT | -0.197
131 | TACAAATA | 0.0915
132 | CGGACCAC | 0.0946
133 | CATTTGTA | -0.0189
134 | AAAGTTAC | 0.0444
135 | AGGGGCAT | -0.0385
136 | GGTATTAA | -0.061
137 | AGACTGAG | -0.181
138 | GCGATAAC | 0.0496
139 | CATGTGAG | -0.165
140 | AAAAACCA | 0.092
141 | GGAAATCC | 0.0173
142 | GACGACGA | -0.00938
143 | GCGCGACC | 0.0445
144 | GTCCATGA | -0.223
145 | CAGAAGGA | -0.326
146 | AACCTAAG | -0.196
147 | CAGTTAAA | 0.2
148 | AGCCCTCG | 0.183
149 | TTCTTAAA | -0.0313
150 | AACAGATG | -0.115

Row | Sequence | PBM E-score
151 | CCGTATGC | 0.356
152 | CACTGTCA | -0.113
153 | CTCGCCTA | 0.11
154 | CAGGAAAA | -0.0799
155 | CGCGAGAA | 0.0746
156 | CCCGCAAA | 0.145
157 | AAACAAAA | 0.0602
158 | TACCTAGA | -0.0808
159 | AACTAGGG | -0.0928
160 | ACAAAAAA | 0.0149
161 | ATGTCGTC | -0.0259
162 | ACTTCGCC | -0.0263
163 | CGAGTTCA | 0.0279
164 | AAGGATAC | -0.027
165 | GGGCCTAA | -0.294
166 | CCTTTACA | -0.0853
167 | CCACGATA | -0.0526
168 | AAACTGAA | -0.0489
169 | ACGACCGG | 0.207
170 | AAGGGTTC | -0.162
171 | ACTTATTG | -0.116
172 | ATTATGTG | -0.0485
